Reference: PubChem BioAssay AID540317 (National Center for Advancing Translational Sciences (NCATS), 2011)
In all, about 390,000 compounds went through this assay and about 2,200 (0.56%) were called active. Inconclusive means that the source gave no clear call. Such entries were picked first, then a sample of the others. Calls follow the shape of the dose curve; as a rule, active = well fitted inhibition curve with a large enough effect; inconclusive = small, poorly fitted or top-dose-only effect; inactive = no such curve, though single readings can be large or run the other way. A potency beside an inconclusive call is a rough fit, not a confirmed value.

These compounds were tested against Chromobox protein homolog 1 (Homo sapiens) (UniProt P83916) (assay: HTS for Inhibitors of HP1-beta Chromodomain Interactions with Methylated Histone Tails). Details: AlphaScreen HP1-beta / biotin-H3K9me3 peptide binding; series mostly up to 114 µM; activity change, negative = inhibition: at the top concentration.
Chain of UniProt P83916 (P83916 whole entry, looked up): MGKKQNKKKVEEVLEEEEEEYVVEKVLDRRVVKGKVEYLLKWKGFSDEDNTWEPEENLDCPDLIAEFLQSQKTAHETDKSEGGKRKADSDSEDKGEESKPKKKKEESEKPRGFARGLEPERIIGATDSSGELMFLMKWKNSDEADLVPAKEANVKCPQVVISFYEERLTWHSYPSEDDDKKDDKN
Method in brief: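 AlphaScreen: HP1-beta (50 nM) preformed 30 min with biotin-H3(1-18)K9me3 peptide (50 nM) in PBS pH 7.4, 0.01% Tween-20. Compound added for 30 min at RT, then streptavidin donor/nickel chelate acceptor beads (10 ug/mL) for 30 min.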
Also: nearly all actives have a fitted effect of over 70% in size.
Potency is read from the fitted curve at half-maximal effect; tags tell the direction and shape of the fitted curve.

Row | Structure (SMILES) | Potency | activity change, negative = inhibition
1 | C/C=C\C=C/C(=O)Nc1cccc(C2=NOC3(C2)C[C@H](C(N)=O)N(C(=O)Cc2ccc([N+](=O)[O-])cc2)C3)c1 (stereo partly drawn) | inconclusive: 35.5 µM [inhibitor, full curve] | 
2 | COc1ccccc1N1CCN(C2CC(=O)N(c3ccc(F)cc3)C2=O)CC1 (stereo not drawn) |  | inactive: 31.1%
3 | CC(Sc1nc(N)c2c3c(sc2n1)CSC(C)(C)C3)C(=O)Nc1ccccc1 (stereo not drawn) | inconclusive: 22.4 µM [inhibitor, single point] | 
4 | COc1nc(-c2ccccc2)ccc1-c1noc(-c2ccco2)n1 | inconclusive: 89.1 µM [inhibitor, single point] | 
5 | CCOC(=O)c1c(NC(=O)CSc2nnc(-c3cccnc3)o2)sc(C(C)=O)c1C | inconclusive: 5.62 µM [inhibitor, full curve] | 
6 | CCc1ccc(S(=O)(=O)/N=C2\C=C(Nc3cccc(C(=O)O)c3)C(=O)c3ccccc32)cc1 | inconclusive: 12.6 µM [inhibitor, partial curve, poor fit] | 
7 | O=C1C=CC(=O)N1Cc1ccccc1 | inconclusive: 10 µM [inhibitor, partial curve, poor fit] | 
8 | Cc1cc(C)c(-n2c(SCc3nc4ccccc4s3)n[nH]c2=O)c(C)c1 |  | inactive: -5.36%
9 | COc1ccc(OC)c(NS(=O)(=O)c2cccc3cccnc23)c1 | inconclusive: 70.8 µM [inhibitor, partial curve, poor fit] | 
10 | COc1ccc(-n2nc([N+](=O)[O-])c(=NCCc3ccccc3)n2O)cc1 | inconclusive: 50.1 µM [inhibitor, single point] | 
11 | Cc1cccc(C)c1N1CCN(CCn2c(=S)[nH]c3ccccc3c2=O)CC1 |  | inactive: 30.3%
12 | C=CCOc1c(CNc2ccc3[nH]c(=O)[nH]c3c2)cccc1OC | inconclusive: 25.1 µM [inhibitor, full curve] | 
13 | CC(C)CCN1C(=O)c2ccc(C(=O)Nc3ccccn3)cc2C1=O |  | inactive: 20.8%
14 | N#CC(C#N)=C1C=C2C=C(N3CCCCC3)CCC2CC1 (stereo not drawn) | inconclusive: 56.2 µM [inhibitor, single point] | 
15 | Oc1ccc(N=Nc2ccc3ccccc3c2)cc1 | inconclusive: 14.1 µM [inhibitor, full curve, poor fit] | 
16 | CCOC(=O)C1CCN(Cc2ccccc2C(F)(F)F)CC1 | inconclusive: 79.4 µM [inhibitor, single point] | 
17 | CC1(c2ccccc2)CC(C)(C)N2C(=O)/C(=C3\SC(=S)NC3=O)c3cccc1c32 (stereo not drawn) | active: 14.1 µM | 
18 | Cc1ccc2occ(/C=N/NC(=O)c3ccc(Cl)cc3)c(=O)c2c1 |  | inactive: 24.3%
19 | Cc1ccc(OCCOc2cccc3ccc(C)nc23)c([N+](=O)[O-])c1 | inconclusive: 15.8 µM [inhibitor, full curve, poor fit] | 
20 | Cc1ccc(S(=O)(=O)N2CCOCC2)cc1C(=O)Nc1nc(-c2ccccn2)cs1 | inconclusive: 20 µM [inhibitor, partial curve] | 
21 | CC(=O)Nc1cccc(NC(=O)C(=O)NCC(c2ccco2)N2CCc3ccccc3C2)c1 (stereo not drawn) | inconclusive: 79.4 µM [inhibitor, single point] | 
22 | C=CCn1c(C)cc(C(=O)COC(=O)CCc2cc(OC)c(OC)c(OC)c2)c1C | inconclusive: 70.8 µM [inhibitor, partial curve] | 
23 | Cc1ccccc1CC(=O)NC1CCCc2ccccc21 (stereo not drawn) |  | inactive: 18.9%

Row | Structure (SMILES) | Potency | activity change, negative = inhibition
24 | CC(NC(=S)Nc1ccc(Cl)cc1Cl)C(c1cccs1)N1CCCC1 (stereo not drawn) | inconclusive: 50.1 µM [inhibitor, partial curve] | 
25 | COc1ccc(OC)c(CN2CCN(S(=O)(=O)c3ccc(NC(C)=O)cc3)CC2)c1 | inconclusive: 56.2 µM [inhibitor, partial curve, poor fit] | 
26 | Oc1ccc(N=Nc2cccc(C(F)(F)F)c2)cc1C=Nc1ccc(N2CCOCC2)cc1 | inconclusive: 10 µM [inhibitor, partial curve, poor fit] | 
27 | O=[N+]([O-])c1ccc(N2CCN(Cc3ccccc3)CC2)c(S(=O)(=O)N2CCOCC2)c1 | inconclusive: 70.8 µM [inhibitor, partial curve] | 
28 | COc1cc(NC(=O)c2c(C)oc3c2C2=NCCN2C=N3)cc(OC)c1OC | inconclusive: 89.1 µM [inhibitor, single point] | 
29 | CCN(CC)c1ccc(/C=N/N2CCN(Cc3ccccc3Cl)CC2)cc1 | inconclusive: 56.2 µM [inhibitor, partial curve, poor fit] | 
30 | N#Cc1nc(-c2ccccc2F)oc1N1CCCCC1 | inconclusive: 35.5 µM [inhibitor, partial curve] | 
31 | CC1(C)OC(=O)C(=CNc2ccccc2F)C(=O)O1 | inconclusive: 31.6 µM [inhibitor, partial curve, poor fit] | 
32 | CC1CCC(N2CCN(S(=O)(=O)Cc3ccccc3)CC2)CC1 (stereo not drawn) | active: 70.8 µM | 
33 | COc1ccc(OCc2nnc3n2N=C(c2ccc(C)cc2)CS3)cc1 |  | inactive: 33.4%
34 | CCN(CC)S(=O)(=O)c1ccc2c(c1)nc(SCC(=O)N(C)C1CCS(=O)(=O)C1)n2CC (stereo not drawn) |  | inactive: -2.05%
35 | CC(C)Sc1ncc(Cl)c(C(=O)N(Cc2ccc(N(C)C)cc2)C2CCS(=O)(=O)C2)n1 (stereo not drawn) | inconclusive: 31.6 µM [inhibitor, partial curve, poor fit] | 
36 | Cc1ccc(Cn2c(CN3CCC(C(=O)NCCc4ccccc4)CC3)cc3ccccc32)cc1 | inconclusive: 31.6 µM [inhibitor, partial curve] | 
37 | Cc1ccc(S(=O)(=O)CCC(=O)Nc2nnc(-c3ccco3)o2)cc1 |  | inactive: 27.9%
38 | COc1cc(Cl)ccc1NC(=O)COc1ccccc1C(=O)N1CCN(c2ccc(O)cc2)CC1 | inconclusive: 39.8 µM [inhibitor, partial curve] | 
39 | COc1ccccc1N(CC1CO1)S(=O)(=O)c1ccc(C)cc1 (stereo not drawn) |  | inactive: 23.8%
40 | Cc1cccc(CN2CCN(c3ncccn3)CC2)c1 | inconclusive: 79.4 µM [inhibitor, partial curve] | 
41 | COc1ccc(CNC(=O)c2cc(-c3ccc(Br)s3)nc3ccccc23)c(OC)c1 | inconclusive: 89.1 µM [inhibitor, single point] | 
42 | COc1ccc(C(CCN2CCOCC2)c2c(OC)cc(OC)c3c2OC(=O)CC3c2ccc(OC)cc2)cc1 (stereo not drawn) |  | inactive: -21.1%
43 | CN(C)c1ccc(CN(C(=O)/C=C/c2ccccc2Cl)C2CCS(=O)(=O)C2)cc1 (stereo not drawn) |  | inactive: -31.8%
44 | O=C(c1ccco1)N1CCN(C(=S)Nc2ccccc2Cl)CC1 |  | inactive: 27.2%
45 | CC1CCN(C(=O)CSc2nnc(-c3ccccc3F)o2)CC1 | inconclusive: 70.8 µM [inhibitor, partial curve, poor fit] | 
46 | O=C(NC(=S)Nc1ccccc1N1CCOCC1)c1ccc([N+](=O)[O-])cc1 | inconclusive: 31.6 µM [inhibitor, single point] | 

Row | Structure (SMILES) | Potency | activity change, negative = inhibition
47 | CC(=O)c1ccc(S(=O)(=O)N2CCN(C(=O)c3ccccc3Cc3ccccc3)CC2)cc1 |  | inactive: 18.8%
48 | O=C(CNC1CCCCCC1)Nc1ccccc1N1CCCCC1 | inconclusive: 50.1 µM [inhibitor, partial curve, poor fit] | 
49 | Cc1cc(C2=NNC(=Nc3ccc(S(=O)(=O)N4CCOCC4)cc3)SC2)c(C)n1CC1CCCO1 (stereo not drawn) | inconclusive: 5.62 µM [inhibitor, full curve] | 
50 | NC(=O)CCn1c2ccccc2c2ccccc21 |  | inactive: 19.7%
51 | Cn1c(-c2cccc(Br)c2)cnc1NCc1ccccc1O | inconclusive: 50.1 µM [inhibitor, partial curve] | 
52 | COc1cc(CN2CCN(Cc3cccc(OC)c3OC)CC2)cc(OC)c1 | active: 35.5 µM | 
53 | CN(C)c1ccc(C(O)c2cc3ccccc3s2)cc1 (stereo not drawn) | inconclusive: 22.4 µM [inhibitor, partial curve] | 
54 | N#Cc1nc(Cc2ccccc2)oc1N1CCN(c2ccccc2)CC1 | active: 14.1 µM | 
55 | COc1ccc(N2CCN(c3ncnc4scc(-c5ccccc5)c34)CC2)cc1 | inconclusive: 22.4 µM [inhibitor, full curve] | 
56 | Oc1ccc(Cl)cc1/C=N/c1nccs1 |  | inactive: 23.4%
57 | N#CC(C#N)=Cc1cccn1-c1ccc(C(=O)O)cc1 | inconclusive: 50.1 µM [inhibitor, partial curve] | 
58 | COc1ccc(C2c3c(ncn(Cc4ccco4)c3=N)Oc3ccc4ccccc4c32)cc1 (stereo not drawn) | inconclusive: 50.1 µM [inhibitor, partial curve] | 
59 | COc1ccccc1NC(=O)c1cc2c(=O)n(Cc3cccs3)ccc2nc1C |  | inactive: -0.959%
60 | CC(C)N=c1scc(-c2cccs2)n1/N=C/c1ccc(O)c(O)c1O | active: 25.1 µM | 
61 | COc1ccc(CCNc2ncnc3c2c(-c2ccccc2)cn3-c2ccc(Cl)cc2)cc1OC | inconclusive: 44.7 µM [inhibitor, partial curve, poor fit] | 
62 | COc1ccc(O)c(C(=O)c2cnc3nc4ccccc4n3c2)c1 |  | inactive: 21.4%
63 | Nc1cccn2c(-c3ccc(Cl)c(Cl)c3)cnc12 | inconclusive: 35.5 µM [inhibitor, partial curve] | 
64 | CC1=C([N+](=O)[O-])C(c2ccc3c(c2)OCO3)N(C)C(=O)N1C (stereo not drawn) |  | inactive: 22.4%
65 | O=C(CNC1CCCCCC1)Nc1ccccc1N1CCOCC1 | inconclusive: 17.8 µM [inhibitor, full curve] | 
66 | COc1ccc(NC(=O)N[C@@H](CCSC)C(=O)O)cc1OC | inconclusive: 35.5 µM [inhibitor, single point] | 
67 | COc1ccc(N2CCN(C(=O)c3ccccc3F)CC2)c([N+](=O)[O-])c1 | inconclusive: 10 µM [inhibitor, full curve] | 
68 | CC1CCN(S(=O)(=O)c2ccc3nc(NCc4ccc(N(C)C)cc4)ccc3c2)CC1 | inconclusive: 20 µM [inhibitor, full curve] | 
